Data from PubChem BioAssay AID1963576 (National Center for Advancing Translational Sciences (NCATS), 2024).
Among all 46,000 compounds or so, about 60 (0.1%) were called active. About 3% were inconclusive and are not listed. The call rests on the fitted dose curve; in most records, active means well fitted inhibition curve with a large enough effect; inconclusive means small, poorly fitted or top-dose-only effect; inactive means no such curve, though single readings can be large or run the other way. This is one part of the list.

Assay: Primary qHTS assay for Inhibitors of ovarian cancer metastasis using an organotypic tumor microenvironment (TME) model. Further: nearly all actives have a fitted effect of over 65% in size.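 On activity change, negative = inhibition: plate controls were DMSO wells for no effect and tomatine positive control wells for full effect.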
Conditions: SKOV3ip1-GFP adhesion/invasion on 3D omental model, fluorescence; series mostly up to 45.8 µM; activity change, negative = inhibition: at the top concentration
Summary of the method: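 A 3D layer of primary human omental fibroblasts, mesothelial cells, fibronectin and collagen I, grown 48 hr, received SKOV3ip1-GFP cells in serum-free medium plus compounds at 0.36-46 umol/L. After 2 hr RT and 16 hr 37 C, fixed adherent GFP cells were counted; normalized to DMSO and tomatine.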

Activity change, negative = inhibition, inactive:
Cc1cc(C)cc(OCC(=O)N(Cc2ccc(Cl)cc2)C2CCS(=O)(=O)C2)c1 (centres undefined) 0.159%
COc1ccccc1CNC(=O)C1CCN(C2=NS(=O)(=O)C(c3ccc(C)c(C)c3)=C2C)CC1 2.12%
CC(C)Cc1nn2c(=O)cc(COC(=O)c3cccc(NS(C)(=O)=O)c3)nc2s1 7.93%
Cc1nc(N2CCOCC2)c2c(C(=O)N(C)c3ccccc3)c(C)oc2n1 1.12%
CCOc1ccc(-c2cn3c(n2)sc2cc(C(=O)N4CCCC(C)C4)ccc23)cc1 (centres undefined) 19.7%
Cc1nc(-c2ccc(F)cc2)sc1CCNC(=O)c1ccc(OC(C)C)cc1 -1.97%
COc1ccc(CNC(=O)CCCN2C(=O)CCn3nc(-c4cn(C)c5ccccc45)cc32)cc1 4.28%
Cc1ccc(-n2c(=O)c3cccnc3n2CC(=O)Nc2ccc(C)cc2Cl)cc1 6.25%
O=C(NCCc1ccc(Cl)cc1)C1(c2cccs2)CCOCC1 3.45%
COc1ccc(OC)c(NC(=O)Cn2ncc3c2-c2ccccc2OC3)c1 1.68%
Cc1c(Cl)cccc1NC(=O)CSc1nc(=O)[nH]c2c1CCCC2 -4.04%
O=C(NCCc1ccccc1)c1ccc(CSc2nc3cccnc3n2Cc2ccccc2F)cc1 3.87%
Cc1cccc(-c2nc(CS(=O)CC(=O)NCc3ccc(Cl)cc3)c(C)o2)c1 (centres undefined) 3.87%
O=C1CN(C(=O)c2ccc(S(=O)(=O)N3CCCCC3)cc2)C(c2ccc(F)cc2)c2cc(Cl)ccc2N1 (centres undefined) 10.9%
COc1ccc(-c2[nH]ncc2C(=O)NCc2cccc(Cl)c2)cc1 9.61%
O=C(NCC(c1cccnc1)N1CCOCC1)C(=O)Nc1ccc(Cl)cc1 (centres undefined) 2.04%
Cc1ccc2nc(-c3cccc(NC(=O)c4cccc5c(Cl)cccc45)c3)oc2c1 -0.634%
CCOC(=O)c1c(C)oc2nc(C)nc(NCC3CCN(Cc4ccccc4C)CC3)c12 8.17%
CCOC(=O)c1cc(-c2ccccc2)n(CC(=O)NCc2ccc(C)cc2)c1C -9.91%
COc1cccc(-c2cn3c(n2)sc2cc(C(=O)NCc4ccccc4F)ccc23)c1 24.1%
Cc1oc2ccc(O)c(CN3CCN(C)CC3)c2c1C(=O)Nc1ccc(C(C)C)cc1 -12.6%
Cc1ccc(-c2cc(C(=O)N3CCN(S(=O)(=O)c4ccc(Br)s4)CC3)[nH]n2)cc1C -25.8%
Cc1cccc(N2C(=O)C(CC(=O)Nc3ccc(F)cc3)N(C3CCCC3)C2=O)c1 (centres undefined) -2.05%
Cc1ccc(S(=O)(=O)n2nc(-c3ccccc3)nc2NCc2ccccc2Cl)cc1 3.53%
CCc1ccc(NC(=O)Cn2c(=O)n(Cc3ccc4c(c3)OCO4)c(=O)c3oc4ccccc4c32)cc1 7.66%
Cc1ccc(C)c(NC(=O)Cn2c(=O)n(Cc3nc(C)no3)c(=O)c3cc4c(cc32)OCO4)c1 -10.5%
Cc1cc(C)n2nc(NCc3ccccc3Cl)nc2n1 2.22%
COc1ccc(CNc2nc(-c3ccco3)nn2S(=O)(=O)c2ccc3ccccc3c2)cc1OC -0.643%
COC(=O)c1cc2occc2n1Cc1nc(-c2ccccc2C)oc1C 2.69%
COc1cc(C(=O)NCc2nnnn2-c2ccc(C)c(C)c2)cc(OC)c1OC 7.31%
COc1ccc(OCCn2cc(C(=O)c3ccco3)c3ccccc32)cc1 -27.7%
CCC(=O)N1CCc2cc(S(=O)(=O)NC(Cc3ccccc3)C(=O)NCc3ccc(C)cc3)ccc21 (centres undefined) -14.2%
CC(=O)Nc1ccc(NC(=O)CSc2cn(CC(=O)N(C(C)C)C(C)C)c3ccccc23)cc1 1.83%
Cc1ccc(-c2noc(CN(C3CCCCC3)S(=O)(=O)c3ccc(F)cc3)n2)cc1 -0.543%
CC(=O)N1c2ccc(S(=O)(=O)N3CCN(c4cc(Cl)ccc4C)CC3)cc2CC1C (centres undefined) 4.2%
O=c1c(-c2cc(-c3ccc(F)cc3)nc3c2COc2ccc(Cl)cc2-3)coc2ccc(F)cc12 1.75%
Cc1ccccc1COC(=O)c1ccc(-c2nnn(Cc3ccccc3F)n2)cc1 2.07%
CCN1CCN(C(=O)c2ccc3c(c2)N(Cc2c(F)cccc2Cl)C(=O)c2ccccc2S3)CC1 -20.4%
CCC(C)Sc1nc2c([nH]c3ccccc32)c(=O)n1C (centres undefined) 11.7%
CC(C)c1ccc(NC(=O)CSC2=Nc3ccccc3C3=NC(CCC(=O)NCc4ccc(F)cc4)C(=O)N23)cc1 (centres undefined) 2.32%
COc1cc2c(cc1OC)C(COc1cc(C)cc(C)c1)N(C(=O)c1ccc(S(=O)(=O)N3CCCC3)cc1)CC2 (centres undefined) 7.29%
COC(=O)c1ccc(CNC(=O)c2nc(Cn3nc(C)c(Br)c3C)no2)cc1 10.5%
CCOC(=O)C1CCCN(C(=O)Cn2ncc3c4ccccc4n(Cc4ccc(F)cc4)c3c2=O)C1 (centres undefined) 0.656%
O=C(COc1ccccc1)Nc1sc2c(c1C(=O)Nc1ccccc1)CCCCC2 -0.0817%
Cc1ccc(C)c(-c2ccc(=O)n(Cc3ccc(F)cc3Cl)n2)c1 8.2%
CCc1nc2ccc(C(=O)N3CCN(c4cccc(OC)c4)CC3)cc2nc1CC 9.65%
CCc1nnc(NC(=O)CSc2nc3c([nH]c4ccccc43)c(=O)n2-c2ccc(C)cc2)s1 2.03%
Cc1ccc2[nH]c(CSc3nnc(NC(=O)COc4ccccc4Cl)s3)cc(=O)c2c1 3.88%
CCN(CC)c1ccc(C(=O)Nc2ccc3nc(N(CC)CC)cc(C)c3c2)cc1 -9.34%
Cc1ccccc1NC(=O)C1CCN(S(=O)(=O)c2ccccc2)CC1 22.5%
O=S(=O)(NCC(c1ccco1)N1CCOCC1)c1ccc(Cl)cc1 (centres undefined) -3.34%
Cc1ccc(CNC(=O)c2sc3ncnc(N(C)C4CCCCC4)c3c2C)cc1 -2.24%
COc1cc(OC)c(OC)cc1CN1CCc2nc(N3CCN(c4ccccc4F)CC3)ncc2C1 -1.3%
COc1ccc(Nc2c(-c3ccco3)nc3cccc(C)n23)cc1 0.653%
O=C(Nc1ccccc1C(F)(F)F)Nc1c[nH]c(=O)[nH]c1=O -7.64%
Cc1c(C(=O)OC2CCCCC2)[nH]c2c1C(=O)CC(c1ccccc1)C2 (centres undefined) -6.17%
COc1ccc(C2C=C(c3ccccc3)Nc3nc(NS(=O)(=O)c4ccc(C)cc4)nn32)cc1 (centres undefined) 8.64%
Cc1ccc2oc(=O)c3cnn(CC(=O)N4CCN(c5cccc(C(F)(F)F)c5)CC4)c3c2c1 -6.26%
O=S(=O)(c1cccc(C(F)(F)F)c1)N1CCC(Oc2ccc(-n3cnnn3)cc2)CC1 4.81%
CCC(C)NC(=O)CSc1nc2c(sc3ccccc32)c(=O)n1CCc1ccccc1 (centres undefined) 1.77%
CCN(CC)S(=O)(=O)c1ccc2c(c1)N(CC(=O)NCc1ccc(F)cc1)C(=O)CO2 -5.12%
CN(C)N=Nc1nc[nH]c1C(N)=O -11.7%
O=C(Nc1cccnc1)N1CCC(Cc2cccc(Oc3ccc(C(F)(F)F)cn3)c2)CC1 -3.69%
O=C(Nc1ccc([N+](=O)[O-])cc1Cl)c1cc(Cl)ccc1O -15%
CCCN1CCc2nc(SCC(=O)Nc3ccc(C)c(Cl)c3)[nH]c(=O)c2C1 2.74%
CN(C)c1ccc(C2CC(c3c(O)n(C4CCCCC4)c(=O)[nH]c3=O)=Nc3ccccc3S2)cc1 (centres undefined) 1.31%
COc1cccc(NC(=O)Cn2c(=O)n(Cc3ccccc3)c(=O)c3c2c2cc(C)ccc2n3C)c1 -29.2%
Cc1cc(C)c2oc(-c3cc(NC(=O)Cc4ccccc4)ccc3Cl)nc2c1 -0.939%
COC(=O)c1ccc(NC(=O)CCn2cccn2)cc1 -1.15%
c1ccc(CSc2nnc(C3CCNCC3)o2)cc1 3.65%
COc1cccc(Oc2nc3c(c(=O)n(Cc4ccccc4Cl)c(=O)n3C)n2C)c1 5.07%
CCOc1ccc(NC(=O)N(Cc2ccc(CC)cc2)Cc2cn[nH]c2-c2ccc(OC)cc2)cc1 11%
Cc1ccc(C(C)C)c(OCC(=O)Nc2cccc(-c3nc4ncccc4o3)c2)c1 -25.6%
O=c1[nH]c2ccc(NCc3ccc(-c4ccccc4F)o3)cc2[nH]1 1.07%
COc1ccc(C(=O)N2CC(=O)Nc3ccc(C)cc3C2c2ccc(F)cc2)c(OC)c1 (centres undefined) -8.95%

outcome, inactive:
CCN1CCN(C(=O)c2ccc3c(c2)N(Cc2ccccc2)C(=O)c2ccccc2S3(=O)=O)CC1
COc1cc(CSc2ncc(CO)n2Cc2ccc(C)cc2)cc(OC)c1
O=C(NCCC1=CCCCC1)C1CCN(C(=O)N2CCOc3ccccc32)CC1
CCOc1ccccc1CN1C(=O)c2ccccc2C1C(=O)NC1CCCCCC1 (centres undefined)
Cc1cc2oc(C(=O)NCCc3ccc(S(N)(=O)=O)cc3)cc(=O)c2cc1C
COc1ccc(-c2nc(C)c(CCNC(=O)c3ccco3)s2)cc1
O=C(CSc1nc2c([nH]c3ccccc32)c(=O)n1-c1cccc(Cl)c1)NCc1ccccc1
O=C(CCCCCn1c(=O)[nH]c2ccccc2c1=O)N1CCN(c2ccc(Cl)cc2)CC1
CN(Cc1ccccc1)C(=O)Cn1c(=O)c2cccn2c2ccc(F)cc21
CCOC(=O)CNC(=O)CC(c1cc(OC)c(OC)c(OC)c1)N1Cc2ccccc2C1=O (centres undefined)
CCOC(=O)c1ccc(NC(=O)CCn2c(=O)oc3ccccc32)cc1
CCc1ccc(NC(=O)C2CCCN(S(=O)(=O)c3cccc4cccnc34)C2)cc1 (centres undefined)
Cc1ccc2c(C)c(C(=O)N3CCC(c4nc5ccccc5s4)CC3)oc2c1C
Cc1ccc(OCC(=O)N(Cc2ccc(Cl)cc2)CC2CCCO2)cc1C (centres undefined)
CCCOc1ccc(C2C(=O)N(C3CCCCCC3)CC(=O)N2Cc2ccc(OC)cc2)cc1OC (centres undefined)
Cc1cc(N2CCN(c3cccc(C(F)(F)F)c3)CC2)n2nc(-c3ccccc3C)nc2n1
COc1ccc(NC(=O)C2=C(C)Nc3c(C(=O)Nc4ccc(C)cc4)cnn3C2c2cc(OC)ccc2OC)cc1 (centres undefined)
CCOc1ccc(C(=O)N2CCC(c3nc(-c4ccc(S(=O)(=O)N5CCCC5)cc4)no3)CC2)cc1
CCOc1ccc(-c2cc3c(=O)n(Cc4nc(-c5ccc(OC)cc5OC)oc4C)ccn3n2)cc1Cl
